Measurements published in the supplement of paper PMC11417369.
This is one part of the list.

Tested on: PfAP2-HC AP2 domain (GST-tagged)
Experiment: gcPBM binding intensity (ln(normalized median fluorescence intensity)); higher = stronger DNA binding
In short: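 An Agilent 4 × 180k array of primer-extended double-stranded 36-bp intergenic genomic probes, with negative controls, was incubated for 1 h with GST-tagged P. falciparum DNA-binding domains expressed in E. coli. Alexa488 anti-GST antibody detected bound protein, scanned at 488 nm. Binding intensity is the highest Masliner-normalised natural-log median intensity across replicate spots of either probe orientation.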

| Sequence | gcPBM binding intensity (ln) |
| --- | --- |
| AGATATAAGAAAAGCACACACACACTAGAAAAAAAA [CACACA_site5559] | 11 |
| ATATTTATTCAATCCAGTACATATTATATATTGTAT [XGTACX_site184] | 9.68 |
| ATAAAATTATATACGTGTACATATATATATTTATGT [XGTACX_site4653] | 9.73 |
| TTTCTTTTTTCACGTGCATGCCATTTAAGTATTAAT [TGCATGCA_site651] | 9.94 |
| TTTGTTTGGTTTTGGTGTACTTTTTTTTTTTTTTCT [XGTACX_site2050] | 9.77 |
| AGAATTCAACAATGTTGTACATACACACACACAAAA [XGTACX_site5035] | 10.2 |
| GAATTATAAGAATAAACACACAAGCTTAAAAAAAAA [CACACA_site1204] | 9.73 |
| ACATATGTATAATATGCACACGTCATTTTCCCCTTA [CACACA_site5194] | 10 |
| ACTAAACTTATATGTACACACATATAACATTAATTT [CACACA_site2258] | 9.95 |
| TTATTATTTGGTTATAGTACATAATATAATATATAT [XGTACX_site6911] | 9.58 |
| CTATATTTCGTTGGACGTACAAATGTGATAATTAGG [XGTACX_site3232] | 9.43 |
| TATATATATATGTATGCATGTTGTTTTTTATTTAAT [TGCATGCA_site343] | 9.99 |
| CTAATTGTGTATACCTGTACATATATATATATATAT [XGTACX_site416] | 9.96 |
| AAAAAAAAAAAGAACACACACAGTGCACATTCGGTG [CACACA_site788] | 10.4 |
| TGTTATTCTACATATACACACAAATAACAATTTAAA [CACACA_site1824] | 9.61 |
| TTAACTTTTTTATATGCACACATAAACAAGGATATA [CACACA_site8932] | 9.6 |
| AATACAAAAAAAGGTACACACATAATATATTTATTA [CACACA_site2628] | 9.95 |
| TTTCCCTCAAATAAAGTGCATTATGATTTTAATTTA | 9.51 |
| ATGTATTTATTTTAACGTACAAGATATTATTATTAT [XGTACX_site4609] | 9.58 |
| AAATTATATATGATGTGTACATAAATATATACACAT [XGTACX_site8761] | 9.72 |
| ATATGGCATATTTGTATTATACATACATATGTATCT [TGCATGCA_negctrl_site562] | 10.1 |
| AAATTATAATATAATACACACATAAAAAAAAAAAAA [CACACA_site7] | 9.79 |
| TTATTATTCAAGAGGAGTACATTATGTGTATAATAT [XGTACX_site4995] | 9.58 |

| Sequence | gcPBM binding intensity (ln) |
| --- | --- |
| TATATTTAGAGAGAGACACACAAAGGGACTTACACA [CACACA_site2545] | 9.94 |
| TGTGTATATCGATAAAGTACATTTGAAAAGTGACTT [XGTACX_site6957] | 9.6 |
| GTAATATGTATCCATACACACATACAGTTTATTTGC [CACACA_site6540] | 9.96 |
| TTTTATGCGCAATAAGTGCATTTAAAATATATATAT | 9.44 |
| TCCACTTAACTCAATTGTACAAAAATAAAAATTAAA [XGTACX_site855] | 9.41 |
| ATAATATATATATATATATTATCAAATATATATATA [GTGCAC_negctrl_site346] | 9.52 |
| ATACGAAGAAATGTTCATTTATTTCGAACATTTAAT [CACACA_negctrl_site1481] | 9.52 |
| TTTTTCATAAAACACACACACAAAAATAATGTGGAA [CACACA_site3687] | 10 |
| AATATAATATAATATAGTACGTAAAAATATTATACA [XGTACX_site2170] | 10 |
| GTATTAATATATAATTGTACTTTTTTTTTTTTTTTT [XGTACX_site4369] | 9.53 |
| AATAATGAATTGAAATGTACATATTTTTATTAATAC [XGTACX_site8899] | 9.67 |
| TTTTTATATTTTACATGTACATAAATATATTATATA [XGTACX_site958] | 9.72 |
| ATCACCAAATGGGCTATACAACAATGAGAAATGGTA [CACACA_negctrl_site48] | 9.47 |
| TTCACATGAAGAATTAAAATAAAACTAGGAAATTAA [CACACA_negctrl_site1047] | 9.47 |
| TTCATATAATTCATCTGTACATATTGATAGTATGCA [XGTACX_site6386] | 9.61 |
| TGTTTTATTTATTAAGCACACGCGATTTAAAAAATA [CACACA_site981] | 9.37 |
| TCAAATGTGTAATCTTGTACACATTAAAAGAAAAAA [XGTACX_site8822] | 9.65 |
| AATAATATATGGACATGTACATAATATATATTTTTT [XGTACX_site312] | 9.81 |
| AAGAAAAAGAATAACCTTATTTCTATATACTAATTT [TGCATGCA_negctrl_site477] | 9.48 |
| ATCAAAATTGTCATTACACACCTTTATTTTTATAAT [CACACA_site5071] | 9.82 |
| TTTGTTCTTTTTGAAGTGCACTGAAATATAACAAAA | 9.3 |
| AAAAAAACACACACATATATATATATATATATATAT [GTGCAC_negctrl_site498] | 10.3 |
| TAATATATTAATATATGTACGTATTTTTATTAATAT [XGTACX_site5346] | 9.65 |

| Sequence | gcPBM binding intensity (ln) |
| --- | --- |
| TTAAATAATTCTTTTAGTACACACGAATAAGCAGAT [XGTACX_site623] | 9.69 |
| TATCTTATATATAAGTGTACGCAGATTCTTACGATA [XGTACX_site6058] | 9.43 |
| ATAATTAATGATGTATGTACGGAATTTATATATTTG [XGTACX_site5685] | 9.77 |
| ATAGTAATAGAATGATTGCACTTAAATTTTCCCTCT | 9.62 |
| GTATACATATTTATAATAATAAATGTCTTATATTTT [CACACA_negctrl_site688] | 9.67 |
| ATATATCAAATAGACAAACACACAAAGGAAGAGTGA [CACACA_site3922] | 10.2 |
| TATGTATTAATGAGAACATGCAAAATAATAAACAAT [TGCATGCA_site362] | 9.75 |
| CACAGACACGGACACACACACACACCCAGACACATA [CACACA_site4357] | 11.6 |
| CATATACACGAACACACACACACACGCACAAAAAAA [CACACA_site6376] | 10.6 |
| ATATATATATATATATGTACATATGTCAACTGTCTA [XGTACX_site8636] | 10.5 |
| CATACATACAAACACACACACATATATATACATACA [CACACA_site852] | 11.4 |
| ATTTATTTTAAATAAGTGCAAAATGGTTATAAATAA | 9.6 |
| AAAATTTCAATAAATACACACATATAAATATAGATT [CACACA_site6893] | 9.83 |
| ATAAATATTTTGTAAGCATGCTTTTAAAAAAAGAAA [TGCATGCA_site572] | 9.28 |
| ATGTACTATAGGCACACACACTCACATATATATATA [CACACA_site5745] | 10.4 |
| AAATAGTTGTTAAAGGTGCACAATATGGATATAAGA | 9.98 |
| TGAAAATATATAACGCGTACAAAAAGGAAATACAAT [XGTACX_site3534] | 9.89 |
| TTTTTTTTTTTTTTTGCATGTTGAAAATAAAATTAT [TGCATGCA_site86] | 9.03 |
| GGAATAACCAGACACACACACACATATAAATATGTA [CACACA_site7632] | 11.2 |
| TAAATACAAGAACTGACACACATACATACTACATTT [CACACA_site5561] | 10.5 |
| GGAAAAAAATAAAATAAGTATTTTACATACATATTG [TGCATGCA_negctrl_site10] | 9.49 |
| ATATATTTTTATATAGTGCAAGTAATAAAAAGGAAT | 9.78 |
| ATAACATTCAAAAAATGTACAAACATATGAATAAAT [XGTACX_site7013] | 9.79 |

| Sequence | gcPBM binding intensity (ln) |
| --- | --- |
| ATATCATTTTATTTGTGTACTTAAAAAGTTGCAATG [XGTACX_site4099] | 9.56 |
| AAAACTTTTTTAACAGAAAAATAGGGATACAATATA [CACACA_negctrl_site1708] | 9.57 |
| TTTTTATATTTATATAAATAAAAAAATAACAAAATG [XGTACX_negctrl_site231] | 9.46 |
| TACCTATACAGACACACACACACACGCCCACAAAAA [CACACA_site6375] | 11.1 |
| TGAACATACATCAAAAGTACAAACTCGCATGTTATA [XGTACX_site3320] | 9.67 |
| CTCCATATTAGACACACACACAAATGAAAAAAATAT [CACACA_site7420] | 10.2 |
| TAAAATTAAACAAAAAAAAAGAAAAAAAAAAAAAAG [CACACA_negctrl_site1098] | 9.51 |
| TTTTGGTATACGTAATTATATAATATGTTAATCAAT [CACACA_negctrl_site645] | 9.61 |
| AATATTCTATATGATACATGCATGATGGAATAAAAA [TGCATGCA_site980] | 9.77 |
| AATGTAGACACATATGTACACACATATATATGTATA [CACACA_site9014] | 10.1 |
| AAAAAAAACAGACACACACACATAAATATAAATAAA [CACACA_site6214] | 10.5 |
| TTTTTAAAAAGTAACACACACTCTTATATATAATGA [CACACA_site3618] | 10 |
| TATACATATATATATATATATAGATATATTCACGTG [XGTACX_negctrl_site265] | 9.61 |
| AAAATAATAATAAATGCATGTGTTGTTTACTAAGAA [TGCATGCA_site528] | 9.92 |
| ATATATATATATATATGTACTTAATGTTATTATATA [XGTACX_site4508] | 9.59 |
| TGTTCAGTATTGCACACACACAACAAAATAAAAAAA [CACACA_site6314] | 10.2 |
| GAAATGTGATAATATACACACACGCATATATATATA [CACACA_site4332] | 10.2 |
| ATTATATATATATTATGTACATATATTGAAGTGGAT [XGTACX_site5916] | 9.74 |
| ACGGATTAAAAAATGTGTACGCACAAAAAAAAAAAT [XGTACX_site8259] | 9.93 |
| TACGAAATCATATGTACACACACATATATATATATA [CACACA_site5216] | 9.96 |
| TTTTTAATCCTTTGCGCATGTAAAATTATATATTTT [TGCATGCA_site306] | 9.72 |
